# Some of the results follow.
# Tested on: HSkMC (human skeletal muscle cells)
# Assay: cytotoxicity call (relative viability < 0.9)
# Details: 10 µM
row,SMILES,cytotoxicity call
1,C[n+]1cccc(C(=O)O)c1,inactive
2,C[C@H]1CCCCO[C@H](CN(C)Cc2ccc(C(=O)O)cc2)[C@@H](C)CN([C@@H](C)CO)C(=O)c2cc(NC(=O)Cc3ccccc3)ccc2O1,inactive
3,CC(C)NC(=O)N(C)C[C@@H]1Oc2c(NS(=O)(=O)c3ccc(F)cc3)cccc2C(=O)N([C@H](C)CO)C[C@@H]1C,inactive
4,Cc1noc(C)c1NC(=O)Nc1ccc2c(c1)C(=O)N([C@@H](C)CO)C[C@@H](C)[C@H](CN(C)S(=O)(=O)c1ccccc1)OCCCC[C@@H](C)O2,inactive
5,CC(C)NC(=O)N(C)C[C@@H]1OCCCC[C@@H](C)Oc2ccc(NC(=O)C3CCCCC3)cc2C(=O)N([C@H](C)CO)C[C@H]1C,inactive
6,CN(C)S(=O)(=O)N(C)c1ccccc1,inactive
7,COc1ccc(-c2coc3cc(O)ccc3c2=O)c(O)c1O,inactive
8,C[C@@H]1CCCCO[C@@H](CN(C)C(=O)c2ccccc2)[C@H](C)CN([C@@H](C)CO)C(=O)c2cc(NS(=O)(=O)c3ccccc3)ccc2O1,inactive
9,CCCCC(O)c1ccccc1 (stereo not drawn),inactive
10,NCc1ccc(S(=O)(=O)O)cc1,inactive
11,C[C@H]1CN([C@@H](C)CO)S(=O)(=O)c2ccc(C3=CCCCC3)cc2O[C@@H]1CN(C)S(=O)(=O)c1cn(C)cn1,inactive
12,COc1ccc(CCN2C(=O)[C@@]3(c4ccc([N+](=O)[O-])cc4)CC(=O)N(C4CCCCC4)[C@@H]3c3ccc(CO)cc32)cc1,inactive
13,C[C@H](CO)N1C[C@H](C)[C@@H](CN(C)C(=O)Nc2ccc3c(c2)OCO3)Oc2ccc(NC(=O)CCCN(C)C)cc2C1=O,inactive
